# Assay results as given in the supplement of paper PMC10037445.
# Over roughly 2,900 compounds, “NF-kB SEAP reporter activity, fold change vs agonist alone” has its median near 0.99; the highest 2% begin near 2.6. The list shows a part of the results.
# Legend:
# RAW-Dual [1] = experiment: NF-kB SEAP reporter activity, fold change vs agonist alone; cytotoxicity flag (confluency mask): not cytotoxic; higher = enhanced NF-kB activity
# Outline: (§1)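 Library stock was pin-tooled at 50 nL into 384-well plates of RAW-Dual macrophages (50,000 cells/well, DMEM), followed 1 h later by a PRR agonist, and the cells were kept at 37 °C, 5% CO2. Supernatant collected after 20 hours was read for IRF by QuantiLuc luminescence and for NF-κB by QuantiBlue absorbance at 620 nm. Reporter activity is fold change over agonist-alone wells, and a well counted as cytotoxic when its IncuCyte confluency was below 70% of agonist controls in both mask sets.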
# RAW-Dual [2] = experiment: NF-kB SEAP reporter activity, fold change vs agonist alone; higher = enhanced NF-kB activity; details: library stock concentration (final ~1000-fold dilution): 10 mM
# Outline: as §1
# RAW-Dual [3] = experiment: NF-kB SEAP reporter activity, fold change vs agonist alone; cytotoxicity flag (confluency mask): cytotoxic (confluency <70% of control); higher = enhanced NF-kB activity
# Outline: as §1
# [4] = agonist: ODN 1826 (TLR9) 0.5 ug/mL
# [5] = agonist: Pam2CSK4 (TLR2/6) 0.1 ug/mL
# [6] = agonist: Pam3CSK4 (TLR2/1) 0.1 ug/mL
# [7] = cytotoxicity flag (confluency mask): not cytotoxic, agonist: Imiquimod (TLR7) […]
# [8] = cytotoxicity flag (confluency mask): not cytotoxic, agonist: MPLA (TLR4) […]
smiles,measurement,setting,value
CCn1c2ccccc2c2cc(-n3nncc3-c3ccccc3)ccc21 (library stock concentration (final ~1000-fold dilution): 10 mM),NF-kB SEAP reporter activity,RAW-Dual [1]; agonist: LPS (TLR4) 0.1 ug/mL,3.15
same,NF-kB SEAP reporter activity,RAW-Dual [1]; [4],1.82
same,NF-kB SEAP reporter activity,RAW-Dual [1]; [5],1.81
same,NF-kB SEAP reporter activity,RAW-Dual [1]; [6],2.79
CCn1c2ccccc2c2cc(-n3nncc3-c3ccccc3)ccc21,NF-kB SEAP reporter activity,RAW-Dual [2]; [7],1.66
same,NF-kB SEAP reporter activity,RAW-Dual [2]; [8],2.14
COc1cccc2c1c(O)c(C(=O)N(C)c1ccc(C(F)(F)F)cc1)c(=O)n2C,NF-kB SEAP reporter activity,RAW-Dual [2]; [7],0.954
same,NF-kB SEAP reporter activity,RAW-Dual [2]; [8],1.07
COc1cccc2c1c(O)c(C(=O)N(C)c1ccc(C(F)(F)F)cc1)c(=O)n2C (library stock concentration (final ~1000-fold dilution): 10 mM),NF-kB SEAP reporter activity,RAW-Dual [1]; agonist: LPS (TLR4) 0.1 ug/mL,1.07
same,NF-kB SEAP reporter activity,RAW-Dual [1]; [4],1.03
same,NF-kB SEAP reporter activity,RAW-Dual [1]; [5],1.16
same,NF-kB SEAP reporter activity,RAW-Dual [1]; [6],0.893
CC(C)c1nc(N(C)S(C)(=O)=O)nc(-c2ccc(F)cc2)c1C=CC(O)CC(O)CC(=O)O (centres undefined) (library stock concentration (final ~1000-fold dilution): 10 mM),NF-kB SEAP reporter activity,RAW-Dual [1]; agonist: LPS (TLR4) 0.1 ug/mL,1.43
same,NF-kB SEAP reporter activity,RAW-Dual [1]; [4],1.24
same,NF-kB SEAP reporter activity,RAW-Dual [1]; [5],1.01
same,NF-kB SEAP reporter activity,RAW-Dual [1]; [6],1.2
CC(C)c1nc(N(C)S(C)(=O)=O)nc(-c2ccc(F)cc2)c1C=CC(O)CC(O)CC(=O)O (centres undefined),NF-kB SEAP reporter activity,RAW-Dual [2]; [7],0.909
same,NF-kB SEAP reporter activity,RAW-Dual [2]; [8],1.05
Cl.NCCNC(=O)c1ccc(Cl)cn1 (library stock concentration (final ~1000-fold dilution): 10 mM),NF-kB SEAP reporter activity,RAW-Dual [1]; agonist: LPS (TLR4) 0.1 ug/mL,0.986
same,NF-kB SEAP reporter activity,RAW-Dual [1]; [4],0.925
same,NF-kB SEAP reporter activity,RAW-Dual [1]; [5],1.04
same,NF-kB SEAP reporter activity,RAW-Dual [1]; [6],1.05
Cl.NCCNC(=O)c1ccc(Cl)cn1,NF-kB SEAP reporter activity,RAW-Dual [2]; [7],0.893
same,NF-kB SEAP reporter activity,RAW-Dual [2]; [8],1.09
Cc1cc(-c2ccc(N=Nc3ccc4c(S(=O)(=O)O)cc(S(=O)(=O)O)c(N)c4c3O)c(C)c2)ccc1N=Nc1ccc2c(S(=O)(=O)O)cc(S(=O)(=O)O)c(N)c2c1O (library stock concentration (final ~1000-fold dilution): 10 mM),NF-kB SEAP reporter activity,RAW-Dual [1]; agonist: LPS (TLR4) 0.1 ug/mL,1.63
same,NF-kB SEAP reporter activity,RAW-Dual [1]; [4],0.873
same,NF-kB SEAP reporter activity,RAW-Dual [1]; [5],1.45
same,NF-kB SEAP reporter activity,RAW-Dual [1]; [6],0.319
Cc1cc(-c2ccc(N=Nc3ccc4c(S(=O)(=O)O)cc(S(=O)(=O)O)c(N)c4c3O)c(C)c2)ccc1N=Nc1ccc2c(S(=O)(=O)O)cc(S(=O)(=O)O)c(N)c2c1O,NF-kB SEAP reporter activity,RAW-Dual [2]; [8],1.21
Cn1cc(-c2cc3c(-c4ccc(CNC(=O)c5noc(C(C)(C)C)n5)c(F)c4)ncnc3[nH]2)cn1,NF-kB SEAP reporter activity,RAW-Dual [2]; [7],1.51
same,NF-kB SEAP reporter activity,RAW-Dual [2]; [8],1.9
Cn1cc(-c2cc3c(-c4ccc(CNC(=O)c5noc(C(C)(C)C)n5)c(F)c4)ncnc3[nH]2)cn1 (library stock concentration (final ~1000-fold dilution): 10 mM),NF-kB SEAP reporter activity,RAW-Dual [1]; agonist: LPS (TLR4) 0.1 ug/mL,1.94
same,NF-kB SEAP reporter activity,RAW-Dual [1]; [4],1.58
same,NF-kB SEAP reporter activity,RAW-Dual [1]; [5],0.726
same,NF-kB SEAP reporter activity,RAW-Dual [1]; [6],1.37
Nc1n[nH]c2nnc(-c3c(-c4ccccc4)nn4ccccc34)cc12 (library stock concentration (final ~1000-fold dilution): 10 mM),NF-kB SEAP reporter activity,RAW-Dual [1]; agonist: LPS (TLR4) 0.1 ug/mL,1.37
same,NF-kB SEAP reporter activity,RAW-Dual [1]; [4],0.626
same,NF-kB SEAP reporter activity,RAW-Dual [1]; [5],0.577
same,NF-kB SEAP reporter activity,RAW-Dual [1]; [6],0.624
Nc1n[nH]c2nnc(-c3c(-c4ccccc4)nn4ccccc34)cc12,NF-kB SEAP reporter activity,RAW-Dual [2]; [7],0.542
same,NF-kB SEAP reporter activity,RAW-Dual [2]; [8],0.861
Cc1cc(C)c2c(c1)C(N(Cc1cc(C(F)(F)F)cc(C(F)(F)F)c1)c1nnn(C)n1)CCCN2CC1CCC(C(=O)O)CC1 (centres undefined),NF-kB SEAP reporter activity,RAW-Dual [2]; [7],0.911
same,NF-kB SEAP reporter activity,RAW-Dual [2]; [8],1.14
Cc1cc(C)c2c(c1)C(N(Cc1cc(C(F)(F)F)cc(C(F)(F)F)c1)c1nnn(C)n1)CCCN2CC1CCC(C(=O)O)CC1 (centres undefined) (library stock concentration (final ~1000-fold dilution): 10 mM),NF-kB SEAP reporter activity,RAW-Dual [1]; agonist: LPS (TLR4) 0.1 ug/mL,0.632
same,NF-kB SEAP reporter activity,RAW-Dual [1]; [4],0.635
same,NF-kB SEAP reporter activity,RAW-Dual [1]; [5],0.484
same,NF-kB SEAP reporter activity,RAW-Dual [1]; [6],0.444
CC1=C(C)C(=O)C(CCCCCCCCCC[P+](c2ccccc2)(c2ccccc2)c2ccccc2)=CC1=O,NF-kB SEAP reporter activity,RAW-Dual [2]; [7],0.141
same,NF-kB SEAP reporter activity,RAW-Dual [2]; [8],0.218
CC1=C(C)C(=O)C(CCCCCCCCCC[P+](c2ccccc2)(c2ccccc2)c2ccccc2)=CC1=O (library stock concentration (final ~1000-fold dilution): 10 mM),NF-kB SEAP reporter activity,RAW-Dual [1]; agonist: LPS (TLR4) 0.1 ug/mL,0.32
same,NF-kB SEAP reporter activity,RAW-Dual [1]; [4],0.254
same,NF-kB SEAP reporter activity,RAW-Dual [1]; [5],0.159
same,NF-kB SEAP reporter activity,RAW-Dual [1]; [6],0.223
CN1CCC(=C2c3ccccc3C=Cc3ccccc32)CC1,NF-kB SEAP reporter activity,RAW-Dual [2]; [8],1.12
CN1CCC(=C2c3ccccc3C=Cc3ccccc32)CC1 (library stock concentration (final ~1000-fold dilution): 10 mM),NF-kB SEAP reporter activity,RAW-Dual [1]; agonist: LPS (TLR4) 0.1 ug/mL,0.81
same,NF-kB SEAP reporter activity,RAW-Dual [1]; [4],0.511
same,NF-kB SEAP reporter activity,RAW-Dual [1]; [5],0.682
same,NF-kB SEAP reporter activity,RAW-Dual [1]; [6],0.624
CC(N)C1CCC(C(=O)Nc2ccncc2)CC1.Cl.Cl (centres undefined),NF-kB SEAP reporter activity,RAW-Dual [2]; [7],0.965
same,NF-kB SEAP reporter activity,RAW-Dual [2]; [8],1.1
CC(N)C1CCC(C(=O)Nc2ccncc2)CC1.Cl.Cl (centres undefined) (library stock concentration (final ~1000-fold dilution): 10 mM),NF-kB SEAP reporter activity,RAW-Dual [1]; agonist: LPS (TLR4) 0.1 ug/mL,1.15
same,NF-kB SEAP reporter activity,RAW-Dual [1]; [4],1.07
same,NF-kB SEAP reporter activity,RAW-Dual [1]; [5],1.15
same,NF-kB SEAP reporter activity,RAW-Dual [1]; [6],1.33
CN1CCN(CC/C=C2/c3ccccc3Sc3ccc(S(=O)(=O)N(C)C)cc32)CC1,NF-kB SEAP reporter activity,"RAW-Dual [2]; cytotoxicity flag (confluency mask): cytotoxic (confluency <70% of control), agonist: Imiquimod (TLR7) […]",1.16
same,NF-kB SEAP reporter activity,"RAW-Dual [2]; cytotoxicity flag (confluency mask): cytotoxic (confluency <70% of control), agonist: MPLA (TLR4) […]",1.42
CN1CCN(CC/C=C2/c3ccccc3Sc3ccc(S(=O)(=O)N(C)C)cc32)CC1 (library stock concentration (final ~1000-fold dilution): 10 mM),NF-kB SEAP reporter activity,RAW-Dual [3]; agonist: LPS (TLR4) 0.1 ug/mL,0.836
same,NF-kB SEAP reporter activity,RAW-Dual [3]; [4],0.865
same,NF-kB SEAP reporter activity,RAW-Dual [3]; [5],0.78
same,NF-kB SEAP reporter activity,RAW-Dual [3]; [6],1.17
CC1OC(OC2C(CO)OC(OC3C(CO)OC(O)C(O)C3O)C(O)C2O)C(O)C(O)C1NC1C=C(CO)C(O)C(O)C1O (centres undefined),NF-kB SEAP reporter activity,RAW-Dual [2]; [7],0.983
same,NF-kB SEAP reporter activity,RAW-Dual [2]; [8],0.951
CC1OC(OC2C(CO)OC(OC3C(CO)OC(O)C(O)C3O)C(O)C2O)C(O)C(O)C1NC1C=C(CO)C(O)C(O)C1O (centres undefined) (library stock concentration (final ~1000-fold dilution): 10 mM),NF-kB SEAP reporter activity,RAW-Dual [1]; agonist: LPS (TLR4) 0.1 ug/mL,1.19
same,NF-kB SEAP reporter activity,RAW-Dual [1]; [4],1.03
same,NF-kB SEAP reporter activity,RAW-Dual [1]; [5],1.02
same,NF-kB SEAP reporter activity,RAW-Dual [1]; [6],1.06
COc1ccc(-c2ccc3c(N4CCOCC4)nc(N4CC(C)OC(C)C4)nc3n2)cc1CO (centres undefined),NF-kB SEAP reporter activity,RAW-Dual [2]; [7],0.91
same,NF-kB SEAP reporter activity,RAW-Dual [2]; [8],0.935
COc1ccc(-c2ccc3c(N4CCOCC4)nc(N4CC(C)OC(C)C4)nc3n2)cc1CO (centres undefined) (library stock concentration (final ~1000-fold dilution): 10 mM),NF-kB SEAP reporter activity,RAW-Dual [1]; agonist: LPS (TLR4) 0.1 ug/mL,0.793
same,NF-kB SEAP reporter activity,RAW-Dual [1]; [4],0.836
same,NF-kB SEAP reporter activity,RAW-Dual [1]; [5],0.365
same,NF-kB SEAP reporter activity,RAW-Dual [1]; [6],0.707
CNC1CCCN(c2c(F)cc3c(=O)c(C(=O)O)cn(C4CC4)c3c2OC)C1 (centres undefined) (library stock concentration (final ~1000-fold dilution): 10 mM),NF-kB SEAP reporter activity,RAW-Dual [1]; agonist: LPS (TLR4) 0.1 ug/mL,0.905
same,NF-kB SEAP reporter activity,RAW-Dual [1]; [4],0.937
same,NF-kB SEAP reporter activity,RAW-Dual [1]; [5],1.01
same,NF-kB SEAP reporter activity,RAW-Dual [1]; [6],1.06
CNC1CCCN(c2c(F)cc3c(=O)c(C(=O)O)cn(C4CC4)c3c2OC)C1 (centres undefined),NF-kB SEAP reporter activity,RAW-Dual [2]; [7],0.968
same,NF-kB SEAP reporter activity,RAW-Dual [2]; [8],0.927
CC1CCC2C(C)C(OC(=O)CCC(=O)O)OC3OC4(C)CCC1C32OO4 (centres undefined),NF-kB SEAP reporter activity,RAW-Dual [2]; [7],1.84
same,NF-kB SEAP reporter activity,RAW-Dual [2]; [8],2.5
CC1CCC2C(C)C(OC(=O)CCC(=O)O)OC3OC4(C)CCC1C32OO4 (centres undefined) (library stock concentration (final ~1000-fold dilution): 10 mM),NF-kB SEAP reporter activity,RAW-Dual [1]; agonist: LPS (TLR4) 0.1 ug/mL,5.12
same,NF-kB SEAP reporter activity,RAW-Dual [1]; [4],1.67
same,NF-kB SEAP reporter activity,RAW-Dual [1]; [5],1.02
same,NF-kB SEAP reporter activity,RAW-Dual [1]; [6],1.44
